Reference: PMC4336329 (PLoS ONE, 2015)
The whole screen tested about 310,000 compounds, of which about 2,200 (0.71%) showed an effect of 50% or more. Effects have a minus sign here. The list shows a part of the results.

What follows are compounds tested against human ether-à-go-go-related gene (hERG) potassium channel (human, UniProt Q12809) (assay: primary screen, population patch clamp on CHO cells stably expressing hERG).
human ether-à-go-go-related gene (hERG) potassium channel, sequence (Q12809 whole entry, looked up): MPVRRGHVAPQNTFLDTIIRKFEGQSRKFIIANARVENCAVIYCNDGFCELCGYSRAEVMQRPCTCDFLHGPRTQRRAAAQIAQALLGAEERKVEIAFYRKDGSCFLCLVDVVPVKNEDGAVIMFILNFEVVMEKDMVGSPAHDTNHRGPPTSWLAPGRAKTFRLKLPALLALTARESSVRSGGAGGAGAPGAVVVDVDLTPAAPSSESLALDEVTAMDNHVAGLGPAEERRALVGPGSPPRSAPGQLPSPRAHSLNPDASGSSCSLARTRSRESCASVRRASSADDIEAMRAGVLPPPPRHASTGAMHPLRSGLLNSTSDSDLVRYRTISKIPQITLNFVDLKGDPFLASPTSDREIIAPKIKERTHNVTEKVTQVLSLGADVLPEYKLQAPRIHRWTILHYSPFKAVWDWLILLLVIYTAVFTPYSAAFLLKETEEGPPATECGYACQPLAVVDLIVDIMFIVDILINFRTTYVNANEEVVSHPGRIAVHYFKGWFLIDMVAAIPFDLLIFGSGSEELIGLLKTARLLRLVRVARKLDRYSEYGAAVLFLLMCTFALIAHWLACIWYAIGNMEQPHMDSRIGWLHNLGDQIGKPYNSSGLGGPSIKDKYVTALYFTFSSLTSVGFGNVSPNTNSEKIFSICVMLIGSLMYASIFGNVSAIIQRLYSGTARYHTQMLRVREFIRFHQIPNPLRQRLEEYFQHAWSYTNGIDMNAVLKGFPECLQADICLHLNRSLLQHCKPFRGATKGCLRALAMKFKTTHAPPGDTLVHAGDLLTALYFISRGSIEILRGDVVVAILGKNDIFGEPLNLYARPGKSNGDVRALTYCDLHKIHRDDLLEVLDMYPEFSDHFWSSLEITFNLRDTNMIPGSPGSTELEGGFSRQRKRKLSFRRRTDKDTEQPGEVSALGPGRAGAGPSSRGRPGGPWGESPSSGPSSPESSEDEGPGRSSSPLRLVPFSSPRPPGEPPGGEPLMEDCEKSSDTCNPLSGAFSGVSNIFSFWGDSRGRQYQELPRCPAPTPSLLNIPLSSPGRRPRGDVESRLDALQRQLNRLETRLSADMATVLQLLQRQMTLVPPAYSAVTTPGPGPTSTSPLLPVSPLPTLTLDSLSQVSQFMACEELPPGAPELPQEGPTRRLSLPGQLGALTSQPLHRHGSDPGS

SMILES | hERG current change (%, negative = inhibition) at 1uM
CC(C)NC(=O)CN1C(=O)CSc2ccc(S(=O)(=O)N3CCCC3)cc21 | 13.3%
Cc1ccc(/C(O)=C2\C(=O)C(=O)N(CC(C)O)C2c2ccccn2)cc1 (centres unmarked) | 2.24%
Cc1ccc(S(=O)(=O)NC(C)(C)CSc2nncn2N)cc1 | 7.72%
O=C1Nc2ccc(Br)cc2C(c2ccc(Cl)cc2)=NC1O (centres unmarked) | -22.5%
CC(=O)Nc1nonc1-c1nc2ccccc2n1CCC(C)C | 7.61%
CN(C)C(CNC(=O)CCS(=O)(=O)c1ccccc1)c1ccccc1 (centres unmarked) | 6.21%
O=C(CC(NC(=O)c1ccccc1)c1ccccc1)Nc1ccc(F)c(F)c1 (centres unmarked) | 22.8%
COc1ccc(C(=O)NC2CCN(S(=O)(=O)c3ccccc3F)CC2)cc1 | 13.1%
O=C(OC(C(=O)NCc1ccccc1)c1ccccc1)c1ccco1 (centres unmarked) | 16.8%
CC(C)Cn1c(CN2C(=O)c3ccccc3C2=O)nc2ccccc2c1=O | 10.5%
COc1ccc(NC(=O)CN2CCc3ccccc3C2)c(OC)c1 | 15.6%
COc1ccccc1Cn1cccc1C=O | 5.36%
CC(Oc1cccc(Cl)c1)C(=O)N1CCCN(C)CC1 (centres unmarked) | 15.5%
Cc1cc(C)n(CC(=O)O)c(=O)c1[N+](=O)[O-] | 5.09%
COCCCNc1nc2c(-c3ccc(C)cc3)nnn2c2ccccc12 | 12.9%
COc1ccc(-c2nnn(CC(=O)N(Cc3ccccc3Cl)C(C(=O)NCC3CCCO3)c3ccco3)n2)cc1 (centres unmarked) | 5.29%
O=C(CN1CCOCC1)Nc1cccc([N+](=O)[O-])c1 | 12.4%
Cc1ccc(CNS(=O)(=O)NCc2ccccc2)cc1 | 11.2%
O=C(CSc1ccccc1C(=O)NCc1ccccc1)NC12CC3CC(CC(C3)C1)C2 | 4.41%
COc1ccc(-c2nnc3cccc(Cl)n23)c(OC)c1 | 9.08%
COc1ccc(NS(=O)(=O)c2ccc(OC)c(N(C)S(=O)(=O)c3ccc(Cl)cc3)c2)cc1 | 1.57%
CN1CCc2c(sc(NC(=O)c3ccc(S(=O)(=O)N4CCc5ccccc54)cc3)c2C(N)=O)C1.Cl | 8.16%
COc1ccc2c(c1OC)C(=O)N(c1ccccc1)C2=O | 3.82%

SMILES | hERG current change (%, negative = inhibition) at 1uM
O=C(O)CCC(NC(=O)c1cncc(O)c1)C(=O)O (centres unmarked) | 5.86%
CC(C)CN(C(=O)c1ccc(=O)n(C)n1)c1nc2ccccc2s1 | 7.42%
COC(=O)CC(=O)CSc1nc2c(cc1C#N)CCCCC2 | 9.77%
COCCn1c(SCC(=O)NCC2CCCO2)nc2c(c1=O)SCC2 (centres unmarked) | 13.8%
CCOCCCNCc1ccc(OCc2ccccc2C)c(OC)c1.Cl | 0.719%
N#CCN1CCCC(C(N)=O)C1 (centres unmarked) | 7.14%
CN1CCN(C(=O)C2CCN(c3ncnc4c3nc3n4CCCCC3)CC2)CC1 | 17.1%
CCOC(=O)CSc1ccc(S(=O)(=O)N(C)C2CCCCC2)cc1[N+](=O)[O-] | 14.4%
O=C(NCCS(=O)(=O)N1CCN(c2ccccc2F)CC1)c1ccc(Br)cc1 | 18.8%
CN(C)C=O.O=C(CNC(=O)C12CC3CC(CC(C3)C1)C2)N1CCN(S(=O)(=O)c2cccs2)CC1 | 13.2%
COc1ccc(N(CC(=O)N/N=C(\C)c2cccs2)S(=O)(=O)c2ccccc2)cc1Cl | -33.6%
O=c1[nH]c(CN2CCNCC2)nc2ccccc12 | 1.3%
CC(C(=O)N1CCN(C(=O)c2ccco2)CC1)N1C(=O)NC2(CCCCC2C)C1=O (centres unmarked) | 12.7%
CCCCC(CC)C(=O)Nc1cc([N+](=O)[O-])ccc1F (centres unmarked) | 3.96%
CN(CC(=O)Nc1ccccc1C(F)(F)F)C(=O)CSc1nc(N)cc(N)n1 | 9.61%
CC(C)c1ccc(S(=O)(=O)/N=C2\C=C(NS(=O)(=O)c3ccccc3)C(=O)c3ccccc32)cc1 | -3.11%
COc1ccc(-c2[nH]ncc2CN2CCCC(C(=O)c3cccc(OC)c3)C2)cc1 (centres unmarked) | -29.5%
CCN1CCN(C(=O)CCNC(=O)Cn2cnc3ccccc3c2=O)CC1 | 15.8%
Cc1cc(OCc2nc(-c3ccncc3)no2)cc(C)c1Cl | 14.8%
CCOC(=O)Cc1csc(NC(=O)CSc2nc(C)cc(=O)[nH]2)n1.Cl | 1.47%
CC1CCCCN1S(=O)(=O)c1ccc(S(=O)(=O)NCCc2ccncc2)cc1 (centres unmarked) | -4.19%
NC(=O)c1cc(NC(=O)CCCc2nc3ccccc3s2)cc(C(N)=O)c1 | 12.4%
COc1cccc(CC(=O)OCC(=O)NCC(=O)Nc2cccc(C)c2C)c1 | 13.9%

SMILES | hERG current change (%, negative = inhibition) at 1uM
O=C1NC(=O)/C(=C/c2ccccc2Oc2ccc(Cl)cc2)S1 | 3.77%
CCc1ccc(NC(=O)CSc2ccc(-c3sc(C)nc3C)nn2)cc1 | 12.7%
O=C(c1ccc(-c2ccccc2)cc1)C1CCCN(C(=O)c2ccncc2)C1 (centres unmarked) | 5.72%
Cc1ccsc1C(=O)N/N=C/c1ccc([N+](=O)[O-])cc1 | 10.4%
COc1ccc(C(C)=O)cc1CSc1ccc(S(=O)(=O)N2CCOCC2)cn1 | 1.53%
Nc1nc(NCc2ccco2)nc(NC2CCCCC2)c1[N+](=O)[O-] | 13.7%
CCC(CC)c1nnc(NC(=O)C2CCN(C(=O)c3ccco3)CC2)s1 | 18%
Cc1cc(CN(C)C(=O)c2cc(COc3ccc(F)cc3Cl)on2)n[nH]1 | 5.99%
Cc1ccc(Sc2ncnc(N)c2[N+](=O)[O-])cc1 | 5.98%
COc1cccc(NC(=O)N2CCCC2C(=O)NC23CC4CC(CC(C4)C2)C3)c1 (centres unmarked) | 16.3%
CCOc1ccc(OC(=O)NC(c2ccccc2)C(Cl)(Cl)Cl)cc1 (centres unmarked) | 1.58%
CCCOC(=O)c1ccc(NC(=O)c2cc(=O)[nH]c3ccccc23)cc1 | 9.89%
Cc1ccc(C)c(NC(=O)Cc2coc3cc4c(cc23)CCC4)c1 | 5.49%
O=C(NCc1ccco1)/C(=C/C=C/c1ccccc1)NC(=O)c1ccco1 | 2.05%
Cn1cnnc1SCC(=O)NNC(=O)c1ccc(Cl)cc1 | 10.9%
CN1C2CCC1CC(NC(=O)c1cc(S(=O)(=O)N(C)C)c(Cl)cc1Cl)C2 (centres unmarked) | 8.12%
CC1(C)C(=O)OC(c2cccc([N+](=O)[O-])c2)C2(CCCCC2)C1=O (centres unmarked) | 10.7%
CS/C(N)=N/C(=S)Nc1cccc(Cl)c1 | 2.7%
O=C1/C(=C/c2ccccn2)SC(=S)N1c1ccc(O)cc1 | 1.74%
CN1C(=O)NC(=O)C2(Cc3ccccc3N3CCOCC32)C1=O (centres unmarked) | 22.9%
Cc1cc(C)c2cc(C#N)c(N3CCCN(C(=O)c4cnccn4)CC3)nc2c1 | 3.02%
CC(NC(=O)COc1cccc(Br)c1)C(=O)O (centres unmarked) | 8.08%
O=C(CC(C(=O)O)c1ccc(Cl)cc1)c1ccc(Br)cc1 (centres unmarked) | 12.5%

SMILES | hERG current change (%, negative = inhibition) at 1uM
CCCn1c(SCC(N)=O)nc2c(c1=O)C1(CCCC1)Cc1ccccc1-2 | 11.4%
COC(=O)C1=C(N)N(c2ccc(F)cc2)C2=C(C(=O)CCC2)C1c1ccc2c(c1)OCO2 (centres unmarked) | -5.63%
COc1cc(NC2c3ncccc3C(=O)N2Cc2ccco2)cc(OC)c1OC (centres unmarked) | 15.3%
O=C(CSc1n[nH]c(=O)[nH]c1=O)Nc1cccc(S(=O)(=O)N2CCOCC2)c1 | 13.7%
COc1ccc(NC(=O)c2cc(C)n(Cc3cccs3)c2C)cc1 | 14.5%
Cc1ccc(C)c2c1cc(C)c1nnc(SCc3ccccn3)n12 | 12.3%
O=S(=O)(c1cccc(F)c1)N1CCN(C(=S)NCc2ccccc2)CC1 | 9.9%
COc1ccc(CC(=O)Nc2c(C(=O)N3CCN(c4ccccc4OC)CC3)oc3ccccc23)cc1OC | 9.46%
Cc1cccn2cc(-c3ccccc3)nc12 | 3.89%
COc1ccc(OC)c(NC(=O)c2ccc(-c3csc(C)n3)cc2)c1 | 19.2%
O=C1CCCC2=C1C(c1cccs1)n1nc(SCc3ccccc3)nc1N2 (centres unmarked) | -2.63%
COc1cccc(NC(=O)Nc2nnc(N3C(C)CCCC3C)s2)c1 (centres unmarked) | 13.7%
COC(=O)[C@@H](NC(=O)NCc1ccco1)C(C)C | 6.35%
O=C(CCCn1c(=O)c2sccc2n(CC(=O)OCc2ccccc2)c1=O)NCc1ccco1 | 3.46%
Cc1nnc(NC(=O)C2CCN(S(=O)(=O)c3ccc(Cl)cc3)CC2)s1 | 12.3%
COC(=O)Cc1ccc(NC(=S)NN2CCOCC2)cc1 | 9.36%
CC1(C)CC(=O)CC(C)(C)N1OC(=O)c1ccccn1 | 7.83%
O=C(c1cccnc1)C1CCCN(Cc2nc(-c3cnccn3)no2)C1 (centres unmarked) | -7.93%
COc1cccc(/C=N/NC(=O)CSc2ccccc2C)c1OC | 13.6%
CCOC(=O)Cn1c(C)nc2c(C(=O)OCC)sc(C)c2c1=O | 1.88%
